24 compounds from paper PMC4336329 (PLoS ONE, 2015) can be followed below.

Out of some 310,000 compounds screened, about 14,000 (4.5%) showed an effect of 50% or more. The effect is printed as a negative number. The list shows a part of the results.
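Further: peak tail current of the secondary pulse compared with the same well before compound.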

The target in this assay is human ether-à-go-go-related gene (hERG) potassium channel (human, UniProt Q12809). Briefly: primary screen, population patch clamp on CHO cells stably expressing hERG.
human ether-à-go-go-related gene (hERG) potassium channel, sequence (Q12809 whole entry, looked up): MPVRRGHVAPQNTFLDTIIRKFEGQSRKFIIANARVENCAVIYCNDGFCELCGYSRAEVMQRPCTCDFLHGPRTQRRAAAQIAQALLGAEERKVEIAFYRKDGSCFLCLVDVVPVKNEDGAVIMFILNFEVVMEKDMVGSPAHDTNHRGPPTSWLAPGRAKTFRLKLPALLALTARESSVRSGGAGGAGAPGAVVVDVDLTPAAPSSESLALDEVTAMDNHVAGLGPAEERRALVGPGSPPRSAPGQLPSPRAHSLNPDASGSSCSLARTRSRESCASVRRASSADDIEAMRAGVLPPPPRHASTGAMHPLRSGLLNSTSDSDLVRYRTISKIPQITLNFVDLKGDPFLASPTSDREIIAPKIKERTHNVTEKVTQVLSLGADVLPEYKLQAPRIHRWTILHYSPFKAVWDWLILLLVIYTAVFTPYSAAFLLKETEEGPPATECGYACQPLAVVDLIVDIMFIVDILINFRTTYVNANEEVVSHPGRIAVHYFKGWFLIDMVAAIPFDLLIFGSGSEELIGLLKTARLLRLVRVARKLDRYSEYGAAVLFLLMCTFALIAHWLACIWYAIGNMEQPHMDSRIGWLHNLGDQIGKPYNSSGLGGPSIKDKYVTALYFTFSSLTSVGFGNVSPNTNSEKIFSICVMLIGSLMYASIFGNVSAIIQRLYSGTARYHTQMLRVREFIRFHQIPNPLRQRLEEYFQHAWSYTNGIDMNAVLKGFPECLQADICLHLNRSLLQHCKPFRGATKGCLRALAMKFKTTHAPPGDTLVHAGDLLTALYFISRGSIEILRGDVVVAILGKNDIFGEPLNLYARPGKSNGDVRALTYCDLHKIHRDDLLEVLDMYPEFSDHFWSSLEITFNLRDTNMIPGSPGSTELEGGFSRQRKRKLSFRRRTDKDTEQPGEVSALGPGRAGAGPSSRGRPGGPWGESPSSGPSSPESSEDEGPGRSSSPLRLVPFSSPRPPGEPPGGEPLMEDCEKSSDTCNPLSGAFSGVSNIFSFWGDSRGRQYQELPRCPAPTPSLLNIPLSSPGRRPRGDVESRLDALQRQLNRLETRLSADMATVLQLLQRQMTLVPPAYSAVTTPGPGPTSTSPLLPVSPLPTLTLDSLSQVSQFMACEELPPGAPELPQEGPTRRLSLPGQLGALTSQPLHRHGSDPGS
Consider `Cc1ccc(CN(C)C(=O)c2ccc3c(c2)NC(=O)CS3)o1`, for which the “hERG current change (%, negative = inhibition) at 10uM” value is given as -17.2%.

Take `O=C1C2C3C=CC(CC3)C2C(=O)N1/N=C/c1c(O)ccc2ccccc12` (stereo not drawn): the “hERG current change (%, negative = inhibition) at 10uM” value is listed as 0.488%.

For `Cc1cc2c3c([nH]c2cc1S(=O)(=O)NCCCOC(C)C)CC(C)(C)CC3=O`, the “hERG current change (%, negative = inhibition) at 10uM” value is listed as -10.6%.

As to `CS(=O)(=O)N(CC(=O)N1CCN(c2ccccc2F)CC1)c1cccc(C(F)(F)F)c1`, the “hERG current change (%, negative = inhibition) at 10uM” value is on record as -36.4%.

On to `COc1cccc(C2C(C#N)=C(N)Oc3c2oc(CO)cc3=O)c1OC` (stereo not drawn), for which the “hERG current change (%, negative = inhibition) at 10uM” value came out at 0.613%.

Take `Nc1ccc(NC(=O)NC2CCCCC2)cc1[N+](=O)[O-]`: the “hERG current change (%, negative = inhibition) at 10uM” value worked out at 15.9%.

As to `N#CC(C#N)=C1NC(N)=C(C#N)C(c2ccccc2)=C1C#N`, the “hERG current change (%, negative = inhibition) at 10uM” value turned out to be 11.5%.

Consider `CCSCCOC(=O)C1=C(C)NC(=O)NC1c1cccc(OC)c1OC` (stereo not drawn), for which the “hERG current change (%, negative = inhibition) at 10uM” value is on record as -0.0744%.

Consider `COc1cccc(/C=C/c2nc(S(=O)(=O)c3ccccc3)c(N(C)C)o2)c1`, for which the “hERG current change (%, negative = inhibition) at 10uM” value is -34.7%.

Regarding `COc1ccc(-c2[nH]c(-c3ccc(SC)cc3)nc2SCC(=O)Nc2nccs2)cc1`, the “hERG current change (%, negative = inhibition) at 10uM” value came out at 1.84%.

Turning to `O=C(NCCCCCc1nc2ccccc2[nH]1)c1ccccc1Cl`, the “hERG current change (%, negative = inhibition) at 10uM” value was -6.43%.

Take `CCOc1ncccc1C(=O)OCc1c(Cl)cccc1Cl`: the “hERG current change (%, negative = inhibition) at 10uM” value was 4.68%.

Take `Cc1nc(NC(=O)COC(=O)c2ccc(S(=O)(=O)N3CCc4ccccc4C3)cc2)c(Cl)cc1Cl`: the “hERG current change (%, negative = inhibition) at 10uM” value came out at 2.58%.

Take `COc1ccc(Cl)cc1Nc1nnc(-c2ccncc2)s1`: the “hERG current change (%, negative = inhibition) at 10uM” value came to 12.3%.

As to `O=C(COC(=O)Cc1ccsc1)NCC12CC3CC(CC(C3)C1)C2`, the “hERG current change (%, negative = inhibition) at 10uM” value came out at 7.99%.

For `COC(=O)C(O)(c1c(C)[nH]c2ccccc12)C(F)(F)F` (stereo not drawn), the “hERG current change (%, negative = inhibition) at 10uM” value stood at 5.86%.

Consider `C=CCNC(=O)/C(C#N)=C/c1ccc(C)o1`, for which the “hERG current change (%, negative = inhibition) at 10uM” value is given as 30.9%.

On to `CCOC(=O)N1CCN(C(=O)c2cc3sccc3n2C)CC1`, for which the “hERG current change (%, negative = inhibition) at 10uM” value is reported as -8.4%.

With `COC(=O)CN1C(=O)C(O)=C(C(C)=O)C1c1ccc([N+](=O)[O-])cc1` (stereo not drawn), the “hERG current change (%, negative = inhibition) at 10uM” value was determined as 1.33%.

As to `Cc1c(C(=O)NCCC2=CCCCC2)oc2ccc(S(=O)(=O)N3CCC4(CC3)OCCO4)cc12`, the “hERG current change (%, negative = inhibition) at 10uM” value is 0.446%.

On to `CC(C)(C)c1ccc(C(=O)N2CCC(C(=O)N3CCCCC3)CC2)cc1`, for which the “hERG current change (%, negative = inhibition) at 10uM” value is reported as -3.01%.

On to `Cc1cc(N2C(=O)C(O)=C(C(=O)c3cc4ccccc4o3)C2c2cccc(Br)c2)no1` (stereo not drawn), for which the “hERG current change (%, negative = inhibition) at 10uM” value stood at 11.7%.

Turning to `COc1ccc(NS(=O)(=O)c2ccc(S(=O)(=O)N3CCCC3)cc2)cc1Cl`, the “hERG current change (%, negative = inhibition) at 10uM” value was -28.7%.

For `CCCCN(C(=O)CCC(=O)Nc1cc(C)on1)C(C(=O)NC1CCCC1)c1ccc(F)cc1` (stereo not drawn), the “hERG current change (%, negative = inhibition) at 10uM” value was determined as 4.03%.
